Source: PMC12391319
These are yes or no findings as the source states them, for the method shown. Binding seen in cells or lysates may run through a third protein. Some results given as binding are weak or reduced against the parent protein; the word gives no strength. For part of these data: Where a sequence is shown, tags or fusion partners need not be part of it.

Amino acid sequences for entries named in this document (tags omitted).
UniProt Q14145: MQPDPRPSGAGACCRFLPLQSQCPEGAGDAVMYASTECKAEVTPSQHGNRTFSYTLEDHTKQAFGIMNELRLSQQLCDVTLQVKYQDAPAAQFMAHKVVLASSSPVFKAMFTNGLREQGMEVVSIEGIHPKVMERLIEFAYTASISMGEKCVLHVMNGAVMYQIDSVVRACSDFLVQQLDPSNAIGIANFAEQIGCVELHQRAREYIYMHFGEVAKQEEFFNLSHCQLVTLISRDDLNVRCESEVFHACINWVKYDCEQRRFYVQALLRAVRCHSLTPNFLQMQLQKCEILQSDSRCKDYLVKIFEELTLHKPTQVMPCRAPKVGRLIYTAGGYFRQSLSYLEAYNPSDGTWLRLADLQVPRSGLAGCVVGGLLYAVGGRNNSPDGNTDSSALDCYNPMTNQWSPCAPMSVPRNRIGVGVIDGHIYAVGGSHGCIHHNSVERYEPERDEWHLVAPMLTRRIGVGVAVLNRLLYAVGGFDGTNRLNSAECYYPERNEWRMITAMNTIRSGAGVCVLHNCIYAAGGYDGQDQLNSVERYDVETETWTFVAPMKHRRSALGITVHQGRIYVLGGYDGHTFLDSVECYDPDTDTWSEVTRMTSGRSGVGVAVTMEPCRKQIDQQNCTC
UniProt Q9Z2X8: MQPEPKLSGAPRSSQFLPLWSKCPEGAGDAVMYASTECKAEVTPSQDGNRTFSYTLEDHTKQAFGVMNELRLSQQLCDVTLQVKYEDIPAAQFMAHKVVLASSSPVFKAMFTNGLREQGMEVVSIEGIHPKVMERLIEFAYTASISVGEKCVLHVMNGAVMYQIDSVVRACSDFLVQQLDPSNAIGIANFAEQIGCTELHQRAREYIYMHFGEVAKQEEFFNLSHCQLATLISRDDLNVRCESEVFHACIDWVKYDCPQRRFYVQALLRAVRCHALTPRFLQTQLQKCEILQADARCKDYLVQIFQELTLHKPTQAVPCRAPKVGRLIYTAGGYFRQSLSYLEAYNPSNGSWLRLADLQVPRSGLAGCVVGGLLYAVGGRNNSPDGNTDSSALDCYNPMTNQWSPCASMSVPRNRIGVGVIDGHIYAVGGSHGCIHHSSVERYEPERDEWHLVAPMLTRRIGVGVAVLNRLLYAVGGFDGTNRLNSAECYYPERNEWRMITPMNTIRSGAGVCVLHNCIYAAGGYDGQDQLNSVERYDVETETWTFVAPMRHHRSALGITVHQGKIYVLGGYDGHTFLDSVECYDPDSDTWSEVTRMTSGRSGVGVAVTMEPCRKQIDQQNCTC

T1: FLAG-IRGM-D1 (position 1–31) (human) (UniProt A1A4Y4)
T1 sequence: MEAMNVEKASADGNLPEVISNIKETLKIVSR

T2: FLAG-IRGM-D2 (position 32–181) (human) (UniProt A1A4Y4)
T2 sequence: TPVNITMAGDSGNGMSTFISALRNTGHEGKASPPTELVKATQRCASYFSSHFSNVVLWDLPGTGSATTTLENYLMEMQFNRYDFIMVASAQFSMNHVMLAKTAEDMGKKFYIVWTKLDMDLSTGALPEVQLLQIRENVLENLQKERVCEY

T3: FLAG-IRGM (human IRGM, full-length) (human) (UniProt A1A4Y4)
T3 sequence: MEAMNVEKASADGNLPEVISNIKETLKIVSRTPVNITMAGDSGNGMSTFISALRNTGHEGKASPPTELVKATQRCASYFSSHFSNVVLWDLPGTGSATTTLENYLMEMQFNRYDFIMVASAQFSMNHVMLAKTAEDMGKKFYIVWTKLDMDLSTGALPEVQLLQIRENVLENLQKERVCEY

T4: Immunity-related GTPase family M member 1 (Irgm1), in RAW264.7 cells (mouse) (UniProt Q60766)
T4 sequence: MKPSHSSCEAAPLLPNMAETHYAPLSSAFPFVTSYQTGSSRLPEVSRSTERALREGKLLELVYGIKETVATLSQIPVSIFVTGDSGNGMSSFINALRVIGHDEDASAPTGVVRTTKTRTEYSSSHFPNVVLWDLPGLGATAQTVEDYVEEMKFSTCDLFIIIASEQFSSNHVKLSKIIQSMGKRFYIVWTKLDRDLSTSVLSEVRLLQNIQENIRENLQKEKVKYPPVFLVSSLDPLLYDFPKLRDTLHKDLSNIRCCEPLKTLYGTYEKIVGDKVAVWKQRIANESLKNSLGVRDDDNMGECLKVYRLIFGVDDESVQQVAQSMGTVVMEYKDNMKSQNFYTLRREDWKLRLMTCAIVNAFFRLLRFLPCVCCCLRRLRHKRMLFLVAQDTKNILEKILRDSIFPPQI


Columns and labels:
[1] = biological target: T1, FLAG-IRGM-D1 (position 1–31) (human); assay: co-IP; HEK293T transiently transfected for 48 h with FLAG-IRGM (full-length, D1 or D2) and HA-KEAP1; IP with anti-FLAG or anti-HA, WB
[2] = biological target: T2, FLAG-IRGM-D2 (position 32–181) (human); assay: as above
[3] = biological target: T3, FLAG-IRGM (human IRGM, full-length) (human); assay: as above
[4] = biological target: HA-KEAP1 (human KEAP1) (human) (UniProt Q14145); assay: as above
[5] = biological target: T4, Immunity-related GTPase family M member 1 (Irgm1), in RAW264.7 cells (mouse); assay: co-IP; extracts of RAW264.7 cells overexpressing Irgm1 or Keap1; Irgm1 or Keap1 immunoprecipitated (antibody overnight at 4 °C, protein A/G), precipitates analysed by WB; also Keap1 precipitates from sh-Irgm1 or oe-Irgm1 cells treated with 5 μM MG132 and 40 ng/ml RANKL for 6 h (less Usp25 with Keap1 in Irgm1-deficient cells)
[6] = biological target: kelch-like ECH-associated protein 1 (Keap1), in RAW264.7 cells (mouse) (UniProt Q9Z2X8); assay: as above

Row | binding [3] | binding [4] | binding [6] | Molecule | also measured
1 | binds |  |  | HA-KEAP1 (human KEAP1) (from UniProt Q14145 1-624) | binding [1]: no binding; binding [2]: binds
2 | binds | binds |  | Usp25, in HEK293T cells (from UniProt Q9UHP3 1-1055) (enzyme) | 
3 |  |  | binds | Usp25, in RAW264.7 cells (enzyme, UniProt P57080 1-1055) MTVEQNVLQQSAAQKHQQTFLNQLREITGINDAQILQQALKDSNGNLELAVAFLTAKNAKTPPQEETGYYQTALPGNDRYISVGSQADANVIDLTGDDKDDLQRAIALSLAESNRAFRETGITDEEQAISRVLEASIAENKACLKRTPIEVWRDSRNPYDRKRQEKAPVGLKNVGNTCWFSAVIQSLFNLLEFRRLVLNYKPPSNAQDLPRNQKEHRNLPFMRELRYLFALLVGTKRKYVDPSRAVEILKDAFKSNDSQQQDVSEFTHKLLDWLEDAFQMKAEEETDEEKPKNPMVELFYGRFLAMGVLEGKKFENTEMFGQYPLQVNGFKDLHECLEAAMIEGEIESLHSDNSGKSGQEHWFTELPPVLTFELSRFEFNQALGRPEKIHNKLEFPQVLYLDRYMHRNREITRIKREEIKRLKDYLTVLQQRLERYLSYGSGPKRFPLVDVLQYALEFASSKPVCTSPVDDIDASSSASGPLPSQSLPSTTEQQGPCASDLPGSSSPASGAALPLRSVIHKPFTQSRIPPDLPMHPAPRHITEEELCVLESCLHRWRTEIENDTRDLQESISRIHRTIELMYSDKSMIQVPYRLHAVLVHEGQANAGHYWAYIFDHRESRWMKYNDIAVTKSSWEELVRDSFGGYRNASAYCLMYIDDKAQFLIQEEFNKETGQALVGMETLPPDLRDFVEEDNQRFEKELEEWDTQLAQRSLQEKLLAAPKLREAEASATTAQAGGADYLEQPSRSDLSKHWKEETLRVIAKASHDLEDKGPETVLQSAIKLEYSRLVKLAQEDTPPETDYRLHHVLVYFIQNQAPKKIIEKTLLEQFGDRNLSFDERCHNIMKVAQAKLEMIKPEEVNLEEYEEWHADYKKFRETTMYLITGLENFQRESYIDSLLFLLCAYQNNKELLSKGPYRGHDGELISHYRRECLLKLNEQAAELFESGEDGDVNNGLIIMNEFIVPFLPLLLVDDMEEKDILAVEDMRNRWCSYLGQEMEANLQEKLTDFLPKLLDCSTEIKGFHEPPKLPSYSAHELCERFARIMLSLSRTPADGR | binding [5]: binds
4 |  | binds |  | FLAG-IRGM (human IRGM, full-length) (protein, UniProt A1A4Y4 1-181) MEAMNVEKASADGNLPEVISNIKETLKIVSRTPVNITMAGDSGNGMSTFISALRNTGHEGKASPPTELVKATQRCASYFSSHFSNVVLWDLPGTGSATTTLENYLMEMQFNRYDFIMVASAQFSMNHVMLAKTAEDMGKKFYIVWTKLDMDLSTGALPEVQLLQIRENVLENLQKERVCEY | 
5 |  |  | binds | Immunity-related GTPase family M member 1 (Irgm1), in RAW264.7 cells (protein, UniProt Q60766 1-409) MKPSHSSCEAAPLLPNMAETHYAPLSSAFPFVTSYQTGSSRLPEVSRSTERALREGKLLELVYGIKETVATLSQIPVSIFVTGDSGNGMSSFINALRVIGHDEDASAPTGVVRTTKTRTEYSSSHFPNVVLWDLPGLGATAQTVEDYVEEMKFSTCDLFIIIASEQFSSNHVKLSKIIQSMGKRFYIVWTKLDRDLSTSVLSEVRLLQNIQENIRENLQKEKVKYPPVFLVSSLDPLLYDFPKLRDTLHKDLSNIRCCEPLKTLYGTYEKIVGDKVAVWKQRIANESLKNSLGVRDDDNMGECLKVYRLIFGVDDESVQQVAQSMGTVVMEYKDNMKSQNFYTLRREDWKLRLMTCAIVNAFFRLLRFLPCVCCCLRRLRHKRMLFLVAQDTKNILEKILRDSIFPPQI | 
